Test results from the supplement of paper PMC3334620.
The full ranking holds about 33,000 sequences; the median of “E-score (-0.5 to 0.5)” is about -0.053, and the highest 2% start at about 0.37. This is one part of the list.

molecular target: Hap1 (UniProt P0CE41); assay: PBM E-score (8-mer binding enrichment) (E-score (-0.5 to 0.5)); higher = stronger / more preferred TF binding; most listed sequences are background and not binding sites; conditions: protein concentration: 200 nM; construct: GST-DNA-binding domain
Chain of UniProt P0CE41 (P0CE41 whole entry, the tested form may be a part): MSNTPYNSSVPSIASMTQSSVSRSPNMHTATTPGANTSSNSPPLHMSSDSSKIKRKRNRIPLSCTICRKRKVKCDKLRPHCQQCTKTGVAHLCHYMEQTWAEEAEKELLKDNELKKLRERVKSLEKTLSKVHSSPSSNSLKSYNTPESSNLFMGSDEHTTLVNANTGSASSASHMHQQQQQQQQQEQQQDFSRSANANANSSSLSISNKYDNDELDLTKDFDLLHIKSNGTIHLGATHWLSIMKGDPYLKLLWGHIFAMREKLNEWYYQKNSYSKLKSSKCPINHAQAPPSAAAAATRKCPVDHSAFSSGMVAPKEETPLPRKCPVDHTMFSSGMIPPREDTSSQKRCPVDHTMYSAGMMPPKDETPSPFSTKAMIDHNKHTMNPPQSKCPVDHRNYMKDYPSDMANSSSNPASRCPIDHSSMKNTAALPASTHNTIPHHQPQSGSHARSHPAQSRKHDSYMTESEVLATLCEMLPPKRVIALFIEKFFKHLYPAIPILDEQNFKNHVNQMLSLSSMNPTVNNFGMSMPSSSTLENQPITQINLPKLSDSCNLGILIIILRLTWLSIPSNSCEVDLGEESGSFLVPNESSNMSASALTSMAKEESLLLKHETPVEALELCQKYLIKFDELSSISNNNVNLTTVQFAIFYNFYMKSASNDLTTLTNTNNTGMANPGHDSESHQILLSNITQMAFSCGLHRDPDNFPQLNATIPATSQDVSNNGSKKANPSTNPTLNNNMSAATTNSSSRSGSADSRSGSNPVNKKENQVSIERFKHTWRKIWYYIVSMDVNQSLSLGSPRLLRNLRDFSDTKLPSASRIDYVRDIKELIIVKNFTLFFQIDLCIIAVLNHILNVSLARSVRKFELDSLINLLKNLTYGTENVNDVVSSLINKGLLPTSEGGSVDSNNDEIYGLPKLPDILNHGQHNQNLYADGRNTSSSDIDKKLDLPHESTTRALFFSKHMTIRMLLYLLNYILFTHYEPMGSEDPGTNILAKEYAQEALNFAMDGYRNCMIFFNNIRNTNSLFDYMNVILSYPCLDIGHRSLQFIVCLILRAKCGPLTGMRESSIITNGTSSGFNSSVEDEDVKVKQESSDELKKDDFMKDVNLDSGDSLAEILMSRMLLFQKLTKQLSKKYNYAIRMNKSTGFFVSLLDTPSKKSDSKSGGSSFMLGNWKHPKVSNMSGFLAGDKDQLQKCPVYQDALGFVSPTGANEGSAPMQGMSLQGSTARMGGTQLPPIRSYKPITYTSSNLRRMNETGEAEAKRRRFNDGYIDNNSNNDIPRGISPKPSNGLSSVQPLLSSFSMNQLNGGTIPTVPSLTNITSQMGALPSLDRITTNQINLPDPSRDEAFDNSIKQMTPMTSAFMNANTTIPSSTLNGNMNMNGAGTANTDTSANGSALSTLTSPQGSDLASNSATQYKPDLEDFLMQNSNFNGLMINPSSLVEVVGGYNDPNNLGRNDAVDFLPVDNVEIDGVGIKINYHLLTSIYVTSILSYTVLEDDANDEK
Summary of the method: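 GST-tagged yeast TFs (full-length or DNA-binding domain) were made by PURExpress in vitro transcription/translation and applied at about 100-200 nM to universal all-10-mer Agilent arrays. The arrays were made double-stranded by primer extension, on fresh or once-stripped slides. Bound protein was detected with fluorescent anti-GST, and scans were normalised with masliner. Each ungapped eight-base word, pooled with its reverse complement, received an E-score (modified Wilcoxon-Mann-Whitney statistic) from the Universal PBM Analysis Suite.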

Sequence | PBM E-score
TTATATAA | 0.156
GAGCATGC | -0.125
AGCGGCGG | 0.291
AGCATATA | 0.167
ATACTCAC | -0.078
ATGAGGGG | -0.21
CGTACATC | -0.102
GAGTAAGC | -0.0491
CTGTCGCA | -0.0599
ATAACGGC | 0.355
ACCAGAAT | -0.208
ATTGCTTA | 7e-05
ACACATCG | -0.131
CATAAACG | -0.00967
ACCCGCAT | 0.166
ATTTTGTG | -0.0149
GGCGTCAA | -0.0394
CCACAGCG | -0.179
GCCCGCCA | 0.195
CAGCTTAG | -0.0798
ATTTGCAC | -0.247
GATTAGAC | 0.0444

Sequence | PBM E-score
GCACATGC | -0.053
GGTGCTAC | -0.131
CCGGATTA | 0.383
AGCGGACC | 0.257
ACCGATCA | 0.183
ACTTTGCA | -0.163
TACTCAAA | -0.131
CCGTGTTC | 0.185
CCAGCCTA | -0.281
ATTGGTAC | -0.0137
AACGAATC | 0.0254
TACATGCA | -0.17
CCCTTCCA | -0.176
GATTGAAC | -0.0782
ACGATATC | 0.0796
ACCCAACT | -0.155
AACCCCGC | 0.371
AATGCTCG | 0.0742
CAAAAACA | -0.215
AATTGTTA | -0.109
CAATAAAC | 0.249
AAATTGTC | 0.0182

Sequence | PBM E-score
AAGTCCCG | 0.211
ACGAGAAA | -0.00338
AGCTTTGC | 0.0588
AAGTTAAT | -0.0455
ACATATCC | 0.0913
GAGCCTCC | -0.0758
TAGATGCA | -0.177
ACTGTTCC | -0.0163
TGCGGAAA | 0.213
CACTAGAG | -0.156
AGTCGCGG | 0.0569
ACGTTACA | -0.361
AACAGCGG | 0.175
TCTCGAAA | -0.269
GGTGGAAC | -0.127
CGGGCTAG | 0.197
GTCCGCAC | 0.237
ACGGACGT | 0.329
CAATTGCA | -0.136
GATGAGCA | -0.0729
AATAGAAA | -0.0943
CACAAAGC | -0.179

Sequence | PBM E-score
ACAAGCAG | -0.073
CACTTGCG | -0.26
ATGTGCGC | -0.02
CAGTGGAG | -0.0671
CGGCTTCA | 0.135
AGGCGTAG | -0.153
CGCTCGGC | 0.344
CCCGACCA | 0.171
CCCCGCAA | 0.258
CCACCTTC | -0.194
GGTTCGAA | 0.00151
CAGTGAGG | -0.273
CCTCTCAA | 0.0202
AGTCCCAT | -0.151
TCTGTCCA | 0.00731
CAGGAGTA | -0.176
AGAGTTTC | -0.0568
GAACCCTA | -0.0445
CGGATTTC | 0.426
TCAGGGGA | -0.193
AAATCTCG | 0.232
CACACTTC | -0.106

Sequence | PBM E-score
CATTGCCG | 0.173
AGTAGACA | -0.103
CCCGTCAA | 0.0595
AGGTACGA | -0.169
GAAGCCAC | 0.0224
GAAGCAGA | -0.265
AAACAGCT | -0.0134
GATGAATA | 0.0177
AACCTAAA | -0.0221
AGATGATA | -0.066
GTGTCGAA | -0.256
AACAAAGG | 0.0332
CCGACTTA | 0.242
CCACCACA | -0.0536
AGAGTCAG | -0.0127
ATTGTGTA | -0.115
AGCAGGAG | -0.0101
AGTGGGTG | 0.0112
AACCCTGG | -0.241
CCTTGACA | -0.275
CTTTTTGA | -0.167
ACATATCT | 0.0923
